Assay results: the RNAGym collection of RNA variant scans (doi:10.7554/elife.90254)
Read counts are not given, so values of variants with three or more changes are uncertain.

B1: LINE1-mini (parent)
chain: GGCAGAGCUCAACACAGCGUGGCAAAGUGGCUGUGGCUAGACUGCC

Variants of: B1
Assay: self-cleavage, relative activity (ratio to wild type); higher = more cleavage; in vitro, sequencing; the parent is a self-cleaving ribozyme
G5U A6U C13A showed a self-cleavage of 0.14.
G5U C8A A11U gave a self-cleavage of 0.03.
In the case of G5U C23A G30A G44C, the self-cleavage is reported as 0.02.
G5U A11U C13U C18G G30U G36U gave a self-cleavage of 0.02.
With G5U A12U U34A C37G the self-cleavage was 0.03.
For G5U C23U A24U, the self-cleavage was 0.05.
In the case of G5C U28C U38C C45A, the self-cleavage is reported as 0.02.
For G5U G7A G21A A24G A26U C46A, the self-cleavage was 0.32.
Work on G5U A6C G22C A26G C42A yielded a self-cleavage of 0.09.
G5C U9C A11G gave a self-cleavage of 0.01.
In the case of G5C C13A G17C G19U C31U G36C A39C, the self-cleavage is reported as 0.03.
In the case of G5U A14C C15G G36U C46G, the self-cleavage is reported as 0.01.
With G5U C15A G21C C23A C31U G44U the self-cleavage was 0.01.
In the case of G5C C13A G21A C45A, the self-cleavage is reported as 0.02.
G5U A6U C8U A24G C37U C45G showed a self-cleavage of 0.51.
G5C G7U C10A U28C U32G showed a self-cleavage of 0.02.
With G5U C10U C13G U32A C42A C45A the self-cleavage was 0.06.
Variant G5C C10U C13G A14C has a self-cleavage of 0.03.
With G5C G22A G29U C45A the self-cleavage was 0.04.
G5U A12G G35U gave a self-cleavage of 0.03.
Work on G5C G22U G33A yielded a self-cleavage of 0.04.
G5U C10U A11G G44A gave a self-cleavage of 0.01.
G5C C10A G30C C37G C42U showed a self-cleavage of 0.02.
With G5C G17U C31U A39U the self-cleavage was 0.02.
G5C C13A G21C A24G G29U gave a self-cleavage of 0.01.
G5C A14C C15A gave a self-cleavage of 0.02.
For G5U G7A G22U A41C, the self-cleavage was 0.11.
With G5U C8G U34C the self-cleavage was 0.08.
Work on G5C G21U G33U yielded a self-cleavage of 0.02.
G5C C10G A39U C45A showed a self-cleavage of 0.02.
Work on G5U G7U C18G A39U yielded a self-cleavage of 0.35.
In the case of G5U C37G U38A, the self-cleavage is reported as 0.03.
G5C U9A C13A G44U gave a self-cleavage of 0.01.
In the case of G5C G36A A39U, the self-cleavage is reported as 0.03.
G5C C13A C23U G27U G33U U43G gave a self-cleavage of 0.
G5C C18A A26G G27C showed a self-cleavage of 0.01.
G5C C23A C42U showed a self-cleavage of 0.05.
With G5U C8G A12G the self-cleavage was 0.02.
G5C U38C A39G gave a self-cleavage of 0.02.
With G5U A11G A16U G27C the self-cleavage was 0.02.
In the case of G5C G21U G36C, the self-cleavage is reported as 0.07.
G5C G17C U43C showed a self-cleavage of 0.03.
G5C C13U G40U showed a self-cleavage of 0.04.
In the case of G5C G21A G27U G33C U38C, the self-cleavage is reported as 0.01.
G5C C15A G40U C46A gave a self-cleavage of 0.
G5C C8A C15G A39G gave a self-cleavage of 0.04.
With G5U A12U A39U A41G U43G the self-cleavage was 0.
In the case of G5C U32A C46A, the self-cleavage is reported as 0.04.
In the case of G5U C8G A11C, the self-cleavage is reported as 0.
Work on G5C C18A U43A yielded a self-cleavage of 0.02.
With G5U C18G A24U C46U the self-cleavage was 0.04.
G5C G19U A41U C42U showed a self-cleavage of 0.04.
In the case of G5C U34A C42G, the self-cleavage is reported as 0.06.
Work on G5C C13A G29U yielded a self-cleavage of 0.15.
With G5U C23U A41U the self-cleavage was 0.08.
For G5C U9C C18U G35C, the self-cleavage was 0.01.
Variant G5U A16U G30C has a self-cleavage of 0.01.
Work on G5U A6G G21C G22C G36A U43C G44C yielded a self-cleavage of 0.09.
In the case of G5C G22C G27C, the self-cleavage is reported as 0.05.
Variant G5C A14C G30C G35U has a self-cleavage of 0.07.
Work on G5C U28G G30A U32G yielded a self-cleavage of 0.07.
G5U C18U G22U G35A G44C showed a self-cleavage of 0.01.
For G5C C23A G40C, the self-cleavage was 0.04.
G5C G7A C10U A14G A24C A25G G30C U38G gave a self-cleavage of 0.07.
With G5C U32G C46A the self-cleavage was 0.03.
Work on G5U C10A A11C U38A yielded a self-cleavage of 0.03.
For G5C G7A C18A G19U G30C C37U, the self-cleavage was 0.06.
G5C A24U G27C G36C showed a self-cleavage of 0.04.
For G5U A11G G35A U38A, the self-cleavage was 0.05.
In the case of G5C G7A A16C G36U G40U U43C, the self-cleavage is reported as 0.01.
In the case of G5U A14G G22A A25U U32C A39U, the self-cleavage is reported as 0.02.
In the case of G5U C10A G22U A39U, the self-cleavage is reported as 0.01.
With G5C C13G U20C C37U A39G the self-cleavage was 0.02.
G5C C8G A16G showed a self-cleavage of 0.08.
With G5C U38A A41C the self-cleavage was 0.04.
In the case of G5C C8U U28C, the self-cleavage is reported as 0.01.
G5U C15A G35U gave a self-cleavage of 0.03.
Work on G5U A11U G21A yielded a self-cleavage of 0.04.
For G5U A14C A26G G44U, the self-cleavage was 0.02.
G5U A14U C18U G22C C46A gave a self-cleavage of 0.05.
In the case of G5C A25G U28C G29C G30U, the self-cleavage is reported as 0.14.
G5C C8A C23G A24C showed a self-cleavage of 0.26.
With G5U C13G G17A U28A U34G G36A A39C the self-cleavage was 0.01.
Variant G5C C18U C31U U38A has a self-cleavage of 0.04.
